According to article PMC4336329 (PLoS ONE, 2015):
In all, about 310,000 compounds went through this assay and about 14,000 (4.5%) showed an effect of 50% or more. The effect is printed as a negative number. The list shows a part of the results.

What follows are compounds tested against human ether-à-go-go-related gene (hERG) potassium channel (human, UniProt Q12809) (assay: primary screen, population patch clamp on CHO cells stably expressing hERG).
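Also: peak tail current of the secondary pulse compared with the same well before compound.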

Chain of human ether-à-go-go-related gene (hERG) potassium channel (Q12809 whole entry, looked up): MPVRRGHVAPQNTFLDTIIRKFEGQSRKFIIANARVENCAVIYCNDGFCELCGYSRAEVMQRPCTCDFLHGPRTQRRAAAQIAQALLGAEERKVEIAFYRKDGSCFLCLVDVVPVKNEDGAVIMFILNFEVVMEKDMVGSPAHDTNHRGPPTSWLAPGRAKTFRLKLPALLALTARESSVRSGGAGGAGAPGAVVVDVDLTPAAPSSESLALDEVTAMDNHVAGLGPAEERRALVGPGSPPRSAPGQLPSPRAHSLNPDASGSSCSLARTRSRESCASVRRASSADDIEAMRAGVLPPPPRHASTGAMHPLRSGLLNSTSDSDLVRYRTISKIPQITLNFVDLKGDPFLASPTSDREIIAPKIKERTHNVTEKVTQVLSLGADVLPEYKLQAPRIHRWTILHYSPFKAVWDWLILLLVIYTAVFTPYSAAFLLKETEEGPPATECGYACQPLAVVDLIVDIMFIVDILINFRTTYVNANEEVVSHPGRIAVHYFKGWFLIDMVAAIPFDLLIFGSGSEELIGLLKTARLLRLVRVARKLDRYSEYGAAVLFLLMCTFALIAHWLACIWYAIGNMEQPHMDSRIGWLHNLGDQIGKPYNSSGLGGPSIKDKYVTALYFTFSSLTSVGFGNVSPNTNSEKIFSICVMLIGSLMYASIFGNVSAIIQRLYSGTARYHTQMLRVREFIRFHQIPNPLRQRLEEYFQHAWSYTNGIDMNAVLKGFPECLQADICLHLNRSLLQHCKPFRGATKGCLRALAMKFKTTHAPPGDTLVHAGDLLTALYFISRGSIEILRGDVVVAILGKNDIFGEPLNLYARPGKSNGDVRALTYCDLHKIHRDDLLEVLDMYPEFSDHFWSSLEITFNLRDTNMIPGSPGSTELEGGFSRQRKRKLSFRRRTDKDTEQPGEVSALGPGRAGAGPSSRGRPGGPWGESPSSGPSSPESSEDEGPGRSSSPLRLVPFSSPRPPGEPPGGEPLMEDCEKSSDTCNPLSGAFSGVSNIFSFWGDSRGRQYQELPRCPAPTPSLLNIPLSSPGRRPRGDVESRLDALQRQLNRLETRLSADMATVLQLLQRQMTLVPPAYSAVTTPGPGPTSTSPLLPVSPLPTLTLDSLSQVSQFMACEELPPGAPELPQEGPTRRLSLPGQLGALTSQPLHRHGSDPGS

SMILES	hERG current change (%, negative = inhibition) at 10uM [%]
CCCC1=Nc2cc(C(=O)NCCN3CCCC3)ccc2Sc2ccccc21	-21.2
COc1ccc(NC(=O)CCNS(=O)(=O)c2cccc3nsnc23)c(OC)c1	2.81
Cc1cc2cc3c(=O)[nH]c(=O)[nH]c3nc2cc1C	13.3
CC(=O)c1c(N2CCN(C)CC2)nc(=S)n(-c2cc(C)ccc2C)c1C	28.7
O=C(COC(=O)CCCc1nc2ccccc2s1)NC(=O)NCc1ccco1	-26.1
FC(F)(F)c1cc(Cl)c2nnc(C(F)(F)Cl)n2c1	5.24
Fc1ccc(Nc2nc(-c3ccncc3)nc3ccccc23)cc1	-13
O=c1c(Cc2ccc(F)cc2)c(O)ccn1Cc1ccco1	11.7
C#CCN(N(C)c1ncc(C(F)(F)F)cc1Cl)S(=O)(=O)c1ccc2ccccc2c1	11.1
O=[N+]([O-])c1ccc(Oc2cc(NC3CCCCCCC3)c([N+](=O)[O-])cc2[N+](=O)[O-])cc1	-8.64
O=[N+]([O-])C(=C1Nc2ccccc2N1)C(Cl)=C(Cl)Cl	23.1
Cc1cccc(OCc2nnc(SCC(=O)c3cccs3)n2C)c1C	-18.7
O=C(Nc1cccnc1)c1cc(-c2cccc(Br)c2)nc2ccccc12	0.689
Cc1[nH]c(=O)[nH]c(=O)c1NS(=O)(=O)c1ccccc1	17.2
O=C(NCc1ccco1)c1ccc2ccccc2c1	-9.83
COc1ccc(/C(N)=N/OC(=O)CCc2ccccc2)cc1OC	-10.4
O=C(CN1C(=O)/C(=C\c2ccco2)SC1=S)Nc1ccc(O)cc1C(=O)O	5.54
CCOc1ccc2nc(NC(=O)c3ccco3)sc2c1	-2.08
CC(CCCN(C)C)C(Cc1ccccc1)c1ccccc1.Cl (centres unmarked)	-7.53
CCOc1ccc(CCNC(=O)C2CCN(S(=O)(=O)N3CCOCC3)CC2)cc1OCC	-5.08
CN(Cc1ccccc1)c1ccc(C(CC(N)=O)NC(=O)c2ccccc2)cc1[N+](=O)[O-] (centres unmarked)	7.9
CN1CCN(c2nc(Nc3ccc(F)cc3)nc(Nc3ccc(F)cc3)n2)CC1	-60.5

SMILES	hERG current change (%, negative = inhibition) at 10uM [%]
Cc1[nH]c2ccccc2c1C(=O)COC(=O)c1c(-c2ccccc2)noc1C	-9.73
COc1ccc(S(=O)(=O)N2CCC(C(=O)NCCC(=O)NC3CC3)CC2)cc1	14.8
CC(=O)c1c(C)[nH]c(C(=O)CN2C(=O)NC(C)(C)C2=O)c1C	-17.4
CCc1noc(C)c1C(=O)Nc1nc(-c2ccccc2)cs1	-32.6
CCOC(=O)Cn1c(O)c(N=NC(=O)OC)c2ccccc21	-0.42
CCCCCn1c(=O)c(C(=O)NC(C)c2ccccc2)c(O)c2ccccc21 (centres unmarked)	11.7
O=C(O)/C=C/c1ccc(O)cc1	-0.655
Cc1ccc2nc3n(c(=O)c2c1)CCC3	-14.5
CSc1ccc(CCNC(=O)c2ccc(CS(=O)Cc3ccccc3Cl)o2)cc1 (centres unmarked)	-2.87
CCOc1ccccc1OCCCC(=O)OCC(=O)Nc1cccc(Cl)c1	-1.46
CCOC(=O)Nc1ccc2nc(Sc3ccc(Cl)cc3)sc2c1	16.9
O=C(NCC1CCN(Cc2ccccc2F)CC1)C1CCCN(c2ncnc3c2nc2n3CCCCC2)C1 (centres unmarked)	-8.94
O=C(NC(NC(=S)Nc1ccccc1O)C(Cl)(Cl)Cl)c1ccco1 (centres unmarked)	-1.45
COc1cc(C(=S)N2CCCCC2)ccc1OCC(=O)N1CCCC1	-22.2
Cc1[nH]c2ccc(C(=O)OCCN(C)C)cc2c1C	3.65
COCC(O)CSc1nc(C)[nH]c1[N+](=O)[O-] (centres unmarked)	-3.58
COCc1c(N)c(C)nc(Cl)c1C#N.Cl	22.3
Cn1cc(/C=C/c2nc3ccccc3c(=O)n2-c2cccc([N+](=O)[O-])c2)c2ccccc21	-3.56
Cn1c(=O)c2c(SCc3ccccn3)nc(CC(C)(C)C)nc2n(C)c1=O	-79.4
NC(=O)C1CCN(C(=O)c2ccc3c(=O)n(Cc4cccc(Br)c4)c(=S)[nH]c3c2)CC1	-2.2
O=C(NC1CCSc2ccccc21)c1cccc(S(=O)(=O)N2CCOCC2)c1 (centres unmarked)	5.42
Cc1noc(C)c1CSc1nnc(-c2cc(Cl)ccc2Cl)n1N	4.95

SMILES	hERG current change (%, negative = inhibition) at 10uM [%]
CC(OC(=O)c1ccc(Cl)nc1)C(=O)NCc1ccc2c(c1)OCO2 (centres unmarked)	-9.49
O=C(O)C(=O)O.c1ccc(COc2ccc(OCCCCN3CCCCC3)cc2)cc1	-70.5
O=C(C1=C[C@H](c2ccc(C(F)(F)F)cc2)C[C@H](OCc2ccc(CO)cc2)O1)N1CCCCCCC1	-17.7
CCOC(=O)N1CCN(S(=O)(=O)c2ccc3c(c2)CC(C)N3C(=O)C2CC2)CC1 (centres unmarked)	9.17
O=C(CSc1cnc2ccccc2n1)NC1CCCC1	-8.88
Cl.c1ccc(NNC2=NCCCCC2)cc1	8.92
CC(C)CC(=O)NC(=S)Nc1ccc(N2CCOCC2)cc1	-0.887
N/C(=N\OS(=O)(=O)c1cc(Cl)ccc1Cl)c1ccncc1	-7.66
Cc1ccc(N=C(NOCc2ccc(Cl)cc2Cl)c2nonc2N)c(C)c1	4.49
COC(=O)C1C2CCC(C2)C1C(=O)OCC(=O)c1ccccc1 (centres unmarked)	-14.2
Cc1ccc2nc(/C(C#N)=C\c3cc(C)n(-c4cccc([N+](=O)[O-])c4)c3C)[nH]c2c1	-1.29
COc1cccc(C2c3[nH]c4ccccc4c3C[C@H]3C(=O)N(CCCCCO)CC(=O)N23)c1 (some centres unmarked)	-64.9
C[C@H](NC(=O)N1C[C@H]2C[C@@H](C1)c1cccc(=O)n1C2)C(=O)Nc1ccc(F)c(F)c1	10.6
COc1cc(CO)c(OC)c([N+](=O)[O-])c1	24.4
COc1ccc(C(=O)COC(=O)C(C)N2C(=O)C3C4CCC(C4)C3C2=O)cc1 (centres unmarked)	3.1
CC1=C(C(N)=O)C(c2ccco2)C(C(N)=O)=C(C)N1	26.2
CC(C)(C)c1ccc(NC(=O)c2c(F)cccc2Cl)cc1	-8.54
CN(CC(=O)N1CCCCC1)S(=O)(=O)c1cccc2cccnc12	-1.23
CCOc1ccccc1CN1CCCC(C(=O)c2cc(F)ccc2F)C1 (centres unmarked)	-50.8
COc1ccc([C@@H]2[C@@H]3C(=O)N(C(C)(C)C)C(=O)[C@@H]3[C@]3(C)C(=O)N(c4cccc(F)c4)C(=O)N23)cc1	11.8
COCCCNC(=O)c1ccc(N2CCCC2)c(NS(=O)(=O)c2ccc(C)cc2)c1	-10.1
Cc1ncc([N+](=O)[O-])n1CCOC(=O)C12CC3CC(CC(C3)C1)C2	3.68

SMILES	hERG current change (%, negative = inhibition) at 10uM [%]
OCC1CCCN(C(=S)Nc2ccc(OC(F)F)cc2)C1 (centres unmarked)	-1.17
O=C(N/N=C/c1ccc(N2CCCCC2)o1)C(O)(c1ccccc1)c1ccccc1	20.2
NS(=O)(=O)c1ccc(CNC(=O)/C=C/c2c(Cl)cccc2Cl)cc1	2.87
O=C(C[N+]1(CC#Cc2ccccc2)CCOCC1)c1ccc(Cl)cc1.[Br-]	-13.1
CCc1ccccc1NC(=O)CSc1nnc([C@@H](N)Cc2ccccc2)o1.Cl	5.65
COc1cc(NS(=O)(=O)c2ccc(NC(=O)c3cccnc3)cc2)ncn1	12.3
CCCCCCCC(=O)N/N=C/c1cccnc1	-19.7
CCc1nc2ccc(C(=O)NCCc3ccc(OC)c(OC)c3)cc2nc1CC	-0.0865
FC(F)(F)c1cc(-c2cccs2)nc(NCc2ccco2)n1	19.3
COc1cccc(CN2CCNC(=O)C2CC(=O)NCCc2ccccn2)c1 (centres unmarked)	9.8
COc1cccc(N/C(SCc2ccccc2C)=C(/C#N)C(=O)NCc2cccs2)c1	13.6
COc1ccc(CN2CCN(c3ccccn3)CC2)c(OC)c1	-75.9
COc1ccc(C(=O)C(C)Oc2cccc(NC(=O)c3cccc([N+](=O)[O-])c3)c2)cc1 (centres unmarked)	2.74
CCC(C)NC(=O)CN(c1cc(C)cc(C)c1)S(=O)(=O)c1c(C)[nH]c(=O)[nH]c1=O (centres unmarked)	-4.18
COc1ccc(CNC(=O)CNC(=O)c2c(C)nn(C)c2Cl)cc1	20.4
COCCn1c(SCC(=O)N2CC(=O)Nc3ccccc32)nnc1-c1ccoc1C	5.11
COC(=O)c1nnn(CC(=O)NC(=O)Nc2cccc(C)c2C)c1C(=O)OC	3.38
CC(=O)NC1C(=O)N(CCN2CCOCC2)c2ccc(Br)cc21.Cl (centres unmarked)	5.73
CCS(=O)(=O)n1nc(-c2ccccc2)nc1N	10
COc1ccc(-n2c(COc3ccc4c(c3)OCO4)nnc2SCC(=O)O)cc1	8.69
